43 compounds from publication PMC4336329 (PLoS ONE, 2015) can be followed below.

Hit rate of the full screen: of about 310,000 compounds, about 2,200 (0.71%) showed an effect of 50% or more. The effect is printed as a negative number. The list shows a part of the results.

For this test, the target named is human ether-à-go-go-related gene (hERG) potassium channel (human, UniProt Q12809). Kind of test: primary screen, population patch clamp on CHO cells stably expressing hERG.
human ether-à-go-go-related gene (hERG) potassium channel, sequence (Q12809 whole entry, looked up): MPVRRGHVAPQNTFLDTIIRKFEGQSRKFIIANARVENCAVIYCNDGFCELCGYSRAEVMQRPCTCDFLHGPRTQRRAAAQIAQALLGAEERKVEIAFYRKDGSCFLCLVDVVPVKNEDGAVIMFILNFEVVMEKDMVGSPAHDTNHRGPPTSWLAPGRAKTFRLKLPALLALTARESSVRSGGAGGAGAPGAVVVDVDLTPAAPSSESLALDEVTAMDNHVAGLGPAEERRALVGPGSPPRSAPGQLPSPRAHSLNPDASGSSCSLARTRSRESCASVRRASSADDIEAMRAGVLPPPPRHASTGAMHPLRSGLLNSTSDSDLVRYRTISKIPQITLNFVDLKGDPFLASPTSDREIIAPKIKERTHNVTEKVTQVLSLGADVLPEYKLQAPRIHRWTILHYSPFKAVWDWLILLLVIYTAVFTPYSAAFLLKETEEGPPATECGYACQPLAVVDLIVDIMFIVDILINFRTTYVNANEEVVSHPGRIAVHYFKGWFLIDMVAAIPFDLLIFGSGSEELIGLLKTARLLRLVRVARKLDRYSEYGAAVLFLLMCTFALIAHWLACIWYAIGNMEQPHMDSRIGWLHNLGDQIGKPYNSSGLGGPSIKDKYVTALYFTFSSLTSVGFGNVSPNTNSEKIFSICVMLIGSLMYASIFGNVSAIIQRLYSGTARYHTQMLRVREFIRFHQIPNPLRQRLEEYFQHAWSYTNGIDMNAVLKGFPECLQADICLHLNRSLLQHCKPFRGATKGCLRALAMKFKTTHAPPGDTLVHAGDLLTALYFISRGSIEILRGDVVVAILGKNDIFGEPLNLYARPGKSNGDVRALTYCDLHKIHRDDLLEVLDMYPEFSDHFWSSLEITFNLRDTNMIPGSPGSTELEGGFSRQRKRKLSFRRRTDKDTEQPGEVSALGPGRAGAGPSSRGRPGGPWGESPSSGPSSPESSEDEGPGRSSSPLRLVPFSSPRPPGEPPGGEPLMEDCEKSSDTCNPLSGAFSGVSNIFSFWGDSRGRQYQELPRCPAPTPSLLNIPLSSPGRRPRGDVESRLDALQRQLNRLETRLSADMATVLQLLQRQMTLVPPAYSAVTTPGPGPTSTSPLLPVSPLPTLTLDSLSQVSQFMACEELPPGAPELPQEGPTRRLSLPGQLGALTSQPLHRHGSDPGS
Turning to `CCN(CC)S(=O)(=O)c1cc(NC(=O)C2CCN(c3ncnc4sc(C)c(C)c34)CC2)ccc1Cl`, the “hERG current change (%, negative = inhibition) at 1uM” value worked out at 23.5%. With `O=C(Nc1ccccc1Oc1cccnc1)C1CCCN(Cc2ccc(F)cc2)C1` (stereo not shown) the figure was 4.04%. As to `O=C(N/N=C/c1cn(CCOc2ccccc2)c2ccccc12)c1ccncc1`, the “hERG current change (%, negative = inhibition) at 1uM” value was 2.66%. Turning to `[N-]=[N+]=CC(=O)C(Cc1ccccc1)N1C(=O)c2ccccc2C1=O` (stereo not shown), the “hERG current change (%, negative = inhibition) at 1uM” value is given as 11.6%. As to `Cc1ccc(NC(=O)CNc2ccc(Cl)cc2F)cc1`, the “hERG current change (%, negative = inhibition) at 1uM” value is reported as 8.46%. As to `COc1ccccc1NC(=O)Cn1cnc2c(nc3n2CCCCC3)c1=O`, the “hERG current change (%, negative = inhibition) at 1uM” value worked out at 14.5%. With `O=C(CN1CCN(S(=O)(=O)c2ccccc2)CC1)Nc1ccc([N+](=O)[O-])cc1` the figure was -42.2%. With `C=CCn1c(O)c(C2=c3ccccc3=NC2=O)c2ccccc21` the figure was 14%; with `O=C(Nc1cc([N+](=O)[O-])ccc1C(=O)NCCN1CCOCC1)c1ccccc1`, -12%; with `Cc1cccnc1NC(=O)c1ccc(Br)o1`, 27.6%. In the case of `COc1cccc(NC(=O)C(NC2CCCC2)c2ccccc2)c1` (stereo not shown), the “hERG current change (%, negative = inhibition) at 1uM” value is reported as 0.871%. As for `COC(=O)CCC(=O)N1CCCC(N2CCN(c3cccc(C(F)(F)F)c3)CC2)C1` (stereo not shown), the “hERG current change (%, negative = inhibition) at 1uM” value was -4.1%. For `Cc1ccccc1CSc1nnc(-c2cccnc2)n1N` the value was 4.59%. With `O=C(OCc1nc2ccsc2c(=O)[nH]1)c1ccccc1` the figure was 11.8%; with `O=C(c1cc(S(=O)(=O)N2CCOCC2)ccc1Cl)N1CCc2ccccc2C1`, 3.08%; with `COc1cc2c(cc1OC)C(Nc1ccc(S(N)(=O)=O)cc1)=NC(C)(C)C2`, 0.0307%. With `O=S(=O)(c1ccccc1)c1nc(-c2cccc(Cl)c2)oc1N1CCOCC1` the figure was 15.1%; with `COc1ccc(/C=N/NC(=O)C(Cc2c[nH]c3ccccc23)NC(=O)OCC(C)C)cc1[N+](=O)[O-]` (stereo not shown), 14.3%; with `CCOc1ccccc1CNC(=O)CCn1ccc2cc(S(=O)(=O)N3CCCCC3)ccc21`, 15.5%.

As for `CCOC(=O)c1[nH]c(C)c(C(=O)OCC(=O)NCc2ccc(Cl)cc2)c1C`, the “hERG current change (%, negative = inhibition) at 1uM” value was determined as 3.29%. For `O=C(CN(CCc1ccccc1)C(=O)CNS(=O)(=O)c1ccc(F)cc1)NCc1ccco1` the value was 2.71%. With `COc1ccc(NS(=O)(=O)c2cccc(C(=O)NCC3CCCO3)c2)cc1` (stereo not shown) the figure was 5.65%.

`COC(=O)c1cn(-c2ccccc2)nc1-c1ccc(OC)c(OC)c1`: the “hERG current change (%, negative = inhibition) at 1uM” value was 18.5%. For `Cc1ccc(N=Cc2c(C)[nH]n(-c3nc4ccccc4[nH]3)c2=O)cc1` the value was 13.3%; for `Nc1nc2n(n1)C(c1cccs1)CC(c1ccc(F)cc1)N2` (stereo not shown), 5.77%.

Consider `Cc1ccc(NC(=O)CC2S/C(=N/N=C/C=C/c3ccccc3)NC2=O)cc1Cl` (stereo not shown), for which the “hERG current change (%, negative = inhibition) at 1uM” value is recorded as 18.6%. Regarding `O=C1NC(=O)C(CCc2ccncc2)(CCc2ccncc2)C(=O)N1Cc1ccccc1`, the “hERG current change (%, negative = inhibition) at 1uM” value is -43.4%. On to `COc1ccc(C(=O)Nc2nc3ccccc3s2)cc1`, for which the “hERG current change (%, negative = inhibition) at 1uM” value turned out to be 17.1%. On to `COc1ccc(OC)c(Nc2nc(N)c([N+](=O)[O-])c(NCc3ccccc3)n2)c1`, for which the “hERG current change (%, negative = inhibition) at 1uM” value turned out to be 13.2%.

In the case of `CCc1nc2c(oc3ccccc32)c(=O)[nH]1`, the “hERG current change (%, negative = inhibition) at 1uM” value came to 10.7%. With `COc1ccc(N(CC(=O)Nc2c(C)n(C)n(-c3ccccc3)c2=O)S(=O)(=O)c2ccc(C)cc2)cc1OC` the figure was 10.7%; with `O=C(Nc1cccs1)Nc1cccnc1Cl`, 12.8%; with `Cc1[nH]cnc1CN1CCc2c(c3ccccc3n2C)C1=O.Cl`, 1.5%. For `Cc1ccc(S(=O)(=O)N[C@H](C(=O)OCn2nnc3ccccc3c2=O)C(C)C)cc1` the value was 12.3%; for `Cc1cc2oc(=O)c3c(c2cc1OC(=O)c1ccco1)CCCC3`, 14.4%. Consider `Cc1ccccc1-c1nc(CN(C)C(C)c2ccon2)c(C)o1` (stereo not shown), for which the “hERG current change (%, negative = inhibition) at 1uM” value is 18.2%.

Turning to `Cc1cc(O)cc(O)c1C(=O)Cc1cnn(-c2ccccc2)c1`, the “hERG current change (%, negative = inhibition) at 1uM” value is 5.27%. With `Cc1cccc(N2CCN(S(=O)(=O)c3ccc4c(c3)NC(=O)CS4)CC2)c1C` the figure was 13.8%; with `O=S(=O)(c1ccc2ccccc2c1)N1CCCCCC1`, 15.5%; with `CCCCCCNC(=O)N[C@@H](Cc1ccc(O)cc1)C(=O)NCCC[C@H]1CN2C(=NC[C@H]2C)N1CC1CCC1`, 12.6%.

On to `COc1cc(-c2ccc3oc(-c4ccsc4)cc3c2)cc(OC)c1OC`, for which the “hERG current change (%, negative = inhibition) at 1uM” value was found to be 12.5%. On to `Cc1[nH][nH]c(=O)c1N=Nc1ccc(F)cc1`, for which the “hERG current change (%, negative = inhibition) at 1uM” value is on record as 13.5%.

For the compound `CCOc1ccc(CCNS(=O)(=O)c2ccc3c(c2)oc(=O)n3C)cc1OCC`, the “hERG current change (%, negative = inhibition) at 1uM” value is given as 7.53%.
